The shares of active, inactive and inconclusive entries below differ from those in the screen. Active and inactive are the calls of the source. Calls follow the shape of the dose curve; as a rule, active = well fitted inhibition curve with a large enough effect; inconclusive = small, poorly fitted or top-dose-only effect; inactive = no such curve, though single readings can be large or run the other way.
Assay: qHTS assay to identify inhibitors of the type 1 interferon - major histocompatibility complex class I in skeletal muscle: Counter screen cell viability and HiBit confirmation (AID 1347412); also: nearly all actives have a fitted effect of over 60% in size
Conditions: iHSKM muscle cells + IFN-b, HiBiT or CellTiter-Glo, 24 h; Viability; at 45.9 µM (top of the series)
How it was run: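 Duplicate plates, pinned identically: one read for HiBiT-tagged endogenous HLA-B luminescence, the other for ATP-content viability via CellTiter Glo. Cells were genome-engineered human myoblasts given 4 ng/ml IFN-b; compounds 12-pt, 1:3 from 46 uM final; 24 hr exposure.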
In the case of NC(=O)/C(=C/n1cnc(-c2cc(C(F)(F)F)cc(C(F)(F)F)c2)n1)c1cncnc1, the activity change, negative = inhibition is reported as inconclusive: -31.9% [cytotoxic].
With C=C1/C(=C\C=C2/CCC[C@]3(C)[C@@H]([C@H](C)CCCC(C)(C)O)CC[C@@H]23)C[C@@H](O)C[C@@H]1O the activity change, negative = inhibition was inactive: -5.56%.
For C=C1C(=O)O[C@@H]2[C@H]3C(C)=CC[C@@]34O[C@@]4(C)CC[C@@H]12, the activity change, negative = inhibition was inactive: 49.2%.
With Fc1cccc(-n2cnc3c(NCc4nc5c(F)c(F)ccc5[nH]4)nc(N4CCOCC4)nc32)c1 the activity change, negative = inhibition was inactive: -14.7%.
% is scaled to controls: 0 for no effect and ±100 for the full control effect.
